The results in this text go back to PubChem BioAssay AID330 (DTP/NCI, 2004).

The assay relates to P388 leukemia ip, CD2F1 mice, survival T/C. Nature of the assay: NCI In Vivo Anticancer Drug Screen. Data for tumor model P388 Leukemia (intraperitoneal) in CD2F1 (CDF1) mice. The conditions noted are these: endpoint: median survival time, higher = longer survival.

Inconclusive results and toxic doses are left out. Not every entry of the source has a single result; some have several. They are shown here; other results are not. There may be further records. Values that stand side by side differ for a reason that is not stated; dose, time, organism, isomer or construct need not be as stated for each record. Counts like (3×) give the number of equal values in this list.

On to `O=S(=O)(Nc1ccc2ccccc2c1)N1CCCCC1`, for which the T/C was 93 % of control, 101 % of control, 160 % of control (dose: 50.0 mg/kg/injection, schedule: Q01DX009 (ip), vehicle: Klucel (hydroxypropylcellulose) (HPC)); 101 % of control (2×) and 160 % of control (dose: 100.0 mg/kg/injection, schedule: Q01DX009 (ip), vehicle: Klucel (hydroxypropylcellulose) (HPC)); 99 % of control, 105 % of control, 173 % of control (dose: 200.0 mg/kg/injection, schedule: Q01DX009 (ip), vehicle: Klucel (hydroxypropylcellulose) (HPC)).

With `NC(CC(=O)CCl)C(=O)O` (centres undefined), the T/C (dose: 25.0 mg/kg/injection, schedule: Q04DX003 (ip), vehicle: saline) was 116 % of control and 160 % of control (2×).
